# Values joined by “and” are separate entries in the source; they are usually repeats but may differ in a detail not shown here. Equal entries are not always repeated. Whole data set: some 2,900 compounds, median “IRF Lucia reporter activity, fold change vs agonist alone” near 0.9, cut for the highest 2% near 2.8. This is one part of the list.
# Tests used:
# [1] = system: RAW-Dual; experiment: IRF Lucia reporter activity, fold change vs agonist alone; cytotoxicity flag (confluency mask): not cytotoxic; higher = enhanced IRF activity
# In short: (§1)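 RAW-Dual macrophages were seeded in DMEM at 50,000 cells/well in 384-well plates, given 50 nL of library stock by pin tool, and given a PRR agonist 1 h later. Plates were held at 37 °C, 5% CO2 for 20 hours, after which supernatant was read for IRF by QuantiLuc luminescence and for NF-κB by QuantiBlue absorbance at 620 nm. Reporter activity is expressed as fold change over wells that received agonist alone. A well was called cytotoxic when IncuCyte confluency fell below 70% of agonist controls in both mask sets.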
# [2] = system: RAW-Dual; experiment: IRF Lucia reporter activity, fold change vs agonist alone; higher = enhanced IRF activity; conditions: agonist: MPLA (TLR4) […]
# In short: as §1
# [3] = system: RAW-Dual; experiment: IRF Lucia reporter activity, fold change vs agonist alone; cytotoxicity flag (confluency mask): cytotoxic (confluency <70% of control); higher = enhanced IRF activity
# In short: as §1
# [4] = agonist: 3'3'-cGAMP (STING) 10 ug/mL
# [5] = library stock concentration (final ~1000-fold dilution): 10 mM water, cytotoxicity flag (confluency mask): not cytotoxic
# [6] = library stock concentration (final ~1000-fold dilution): 10 mM, cytotoxicity flag (confluency mask): cytotoxic (confluency <70% of control)
# [7] = library stock concentration (final ~1000-fold dilution): 10 mM, cytotoxicity flag (confluency mask): not cytotoxic
smiles,measurement,setting,value
COc1cc2c(cc1NS(=O)(=O)c1ccc(Br)cc1C)n(C)c(=O)n2C (library stock concentration (final ~1000-fold dilution): 10 mM),IRF Lucia reporter activity,[1]; [4],0.88
same,IRF Lucia reporter activity,[1]; agonist: LPS (TLR4) 0.1 ug/mL,0.909
Cl.NCCCC(N)(C(=O)O)C(F)F.O (stereo not given),IRF Lucia reporter activity,[2]; [5],1.17
Cl.NCCCC(N)(C(=O)O)C(F)F.O (stereo not given) (library stock concentration (final ~1000-fold dilution): 10 mM water),IRF Lucia reporter activity,[1]; [4],1.23
same,IRF Lucia reporter activity,[1]; agonist: LPS (TLR4) 0.1 ug/mL,0.959
CNCCC=C1c2ccccc2CCc2ccccc21.Cl (library stock concentration (final ~1000-fold dilution): 10 mM),IRF Lucia reporter activity,[3]; [4],0.464
same,IRF Lucia reporter activity,[3]; agonist: LPS (TLR4) 0.1 ug/mL,1.52
CNCCC=C1c2ccccc2CCc2ccccc21.Cl,IRF Lucia reporter activity,[2]; [6],1.38
O=C(O)CCC(=O)O.O=C(OC1CN2CCC1CC2)N1CCc2ccccc2C1c1ccccc1 (stereo not given),IRF Lucia reporter activity,[2]; [5],1.43
O=C(O)CCC(=O)O.O=C(OC1CN2CCC1CC2)N1CCc2ccccc2C1c1ccccc1 (stereo not given) (library stock concentration (final ~1000-fold dilution): 10 mM water),IRF Lucia reporter activity,[1]; [4],0.266
same,IRF Lucia reporter activity,[1]; agonist: LPS (TLR4) 0.1 ug/mL,0.748
COc1ccnc(CS(=O)c2nc3ccc(-n4cccc4)cc3[nH]2)c1C (stereo not given),IRF Lucia reporter activity,[2]; [7],0.977
COc1ccnc(CS(=O)c2nc3ccc(-n4cccc4)cc3[nH]2)c1C (stereo not given) (library stock concentration (final ~1000-fold dilution): 10 mM),IRF Lucia reporter activity,[1]; [4],0.939
same,IRF Lucia reporter activity,[1]; agonist: LPS (TLR4) 0.1 ug/mL,1.02
CCN(CC)CCN(Cc1ccc(-c2ccc(C(F)(F)F)cc2)cc1)C(=O)Cn1c(SCc2ccc(F)cc2)nc(=O)c2c1CCC2 (library stock concentration (final ~1000-fold dilution): 10 mM),IRF Lucia reporter activity,[3]; [4],0.014
same,IRF Lucia reporter activity,[3]; agonist: LPS (TLR4) 0.1 ug/mL,0.111
CCN(CC)CCN(Cc1ccc(-c2ccc(C(F)(F)F)cc2)cc1)C(=O)Cn1c(SCc2ccc(F)cc2)nc(=O)c2c1CCC2,IRF Lucia reporter activity,[2]; [6],0.0449
O=C(O[C@@H]1Cc2c(O)cc(O)cc2O[C@@H]1c1cc(O)c(O)c(O)c1)c1cc(O)c(O)c(O)c1 (library stock concentration (final ~1000-fold dilution): 10 mM),IRF Lucia reporter activity,[1]; [4],0.57
same,IRF Lucia reporter activity,[1]; agonist: LPS (TLR4) 0.1 ug/mL,1.06
COC(=O)c1ccc2c(c1)NC(=O)/C2=C(\Nc1ccc(N(C)C(=O)CN2CCN(C)CC2)cc1)c1ccccc1 (library stock concentration (final ~1000-fold dilution): 10 mM),IRF Lucia reporter activity,[1]; [4],0.278
same,IRF Lucia reporter activity,[1]; agonist: LPS (TLR4) 0.1 ug/mL,0.264
COC(=O)c1ccc2c(c1)NC(=O)/C2=C(\Nc1ccc(N(C)C(=O)CN2CCN(C)CC2)cc1)c1ccccc1,IRF Lucia reporter activity,[2]; [7],0.289
CCOC(=O)Nc1ccc(NCc2ccc(F)cc2)nc1N.O=C(O)/C=C/C(=O)O (library stock concentration (final ~1000-fold dilution): 10 mM),IRF Lucia reporter activity,[1]; [4],0.729
same,IRF Lucia reporter activity,[1]; agonist: LPS (TLR4) 0.1 ug/mL,0.812
CCOC(=O)Nc1ccc(NCc2ccc(F)cc2)nc1N.O=C(O)/C=C/C(=O)O,IRF Lucia reporter activity,[2]; [7],1.02
CCC(=O)NS(=O)(=O)c1ccc(-c2c(-c3ccccc3)noc2C)cc1 (library stock concentration (final ~1000-fold dilution): 10 mM),IRF Lucia reporter activity,[1]; [4],1.04 and 1.15
same,IRF Lucia reporter activity,[1]; agonist: LPS (TLR4) 0.1 ug/mL,1.27 and 1.36
CCOc1ccn(-c2ccc(F)cc2)c(=O)c1C(=O)Nc1ccc(Oc2ccnc(N)c2Cl)c(F)c1 (library stock concentration (final ~1000-fold dilution): 10 mM),IRF Lucia reporter activity,[1]; [4],0.391
same,IRF Lucia reporter activity,[1]; agonist: LPS (TLR4) 0.1 ug/mL,0.349
CCOc1ccn(-c2ccc(F)cc2)c(=O)c1C(=O)Nc1ccc(Oc2ccnc(N)c2Cl)c(F)c1,IRF Lucia reporter activity,[2]; [7],0.502
CCn1cc(-c2ccnc3[nH]c(-c4cccc(CN(C)C)c4)cc23)c(-c2ccc(NC(=O)N(C)C)cc2)n1 (library stock concentration (final ~1000-fold dilution): 10 mM),IRF Lucia reporter activity,[1]; [4],0.361
same,IRF Lucia reporter activity,[1]; agonist: LPS (TLR4) 0.1 ug/mL,0.279
CCn1cc(-c2ccnc3[nH]c(-c4cccc(CN(C)C)c4)cc23)c(-c2ccc(NC(=O)N(C)C)cc2)n1,IRF Lucia reporter activity,[2]; [7],0.427
COCC(NC(=O)c1cnc(C)s1)C(=O)NC(COC)C(=O)NC(Cc1ccccc1)C(=O)C1(C)CO1 (stereo not given) (library stock concentration (final ~1000-fold dilution): 10 mM),IRF Lucia reporter activity,[1]; [4],0.763
same,IRF Lucia reporter activity,[1]; agonist: LPS (TLR4) 0.1 ug/mL,2.17
COCC(NC(=O)c1cnc(C)s1)C(=O)NC(COC)C(=O)NC(Cc1ccccc1)C(=O)C1(C)CO1 (stereo not given),IRF Lucia reporter activity,[2]; [7],2.33
Cc1cn(C2CC(N=[N+]=[N-])C(CO)O2)c(=O)[nH]c1=O (stereo not given),IRF Lucia reporter activity,[2]; [7],1
Cc1cn(C2CC(N=[N+]=[N-])C(CO)O2)c(=O)[nH]c1=O (stereo not given) (library stock concentration (final ~1000-fold dilution): 10 mM),IRF Lucia reporter activity,[1]; [4],0.923
same,IRF Lucia reporter activity,[1]; agonist: LPS (TLR4) 0.1 ug/mL,0.82
OCc1ccc(-c2ccc(-c3ccc(CO)s3)o2)s1 (library stock concentration (final ~1000-fold dilution): 10 mM),IRF Lucia reporter activity,[1]; [4],0.684
same,IRF Lucia reporter activity,[1]; agonist: LPS (TLR4) 0.1 ug/mL,0.7
OCc1ccc(-c2ccc(-c3ccc(CO)s3)o2)s1,IRF Lucia reporter activity,[2]; [7],0.819
O=c1c(-c2ccc(O)cc2)coc2cc(O)cc(O)c12 (library stock concentration (final ~1000-fold dilution): 10 mM),IRF Lucia reporter activity,[1]; [4],0.539
same,IRF Lucia reporter activity,[1]; agonist: LPS (TLR4) 0.1 ug/mL,0.563
O=c1c(-c2ccc(O)cc2)coc2cc(O)cc(O)c12,IRF Lucia reporter activity,[2]; [7],0.781
CCCCCCCCCCCCCC(=S)NCCCCC(NC(=O)OCc1ccccc1)C(=O)Nc1ccccc1 (stereo not given) (library stock concentration (final ~1000-fold dilution): 10 mM),IRF Lucia reporter activity,[1]; [4],0.949
same,IRF Lucia reporter activity,[1]; agonist: LPS (TLR4) 0.1 ug/mL,1.09
Nc1cc(O)nc(N)n1,IRF Lucia reporter activity,[2]; [7],1.05
Nc1cc(O)nc(N)n1 (library stock concentration (final ~1000-fold dilution): 10 mM),IRF Lucia reporter activity,[1]; [4],1.03
same,IRF Lucia reporter activity,[1]; agonist: LPS (TLR4) 0.1 ug/mL,0.921
O=C(O)c1ccc(Nc2ncc3c(n2)-c2ccc(Cl)cc2C(c2c(F)cccc2F)=NC3)cc1,IRF Lucia reporter activity,[2]; [7],1.15
O=C(O)c1ccc(Nc2ncc3c(n2)-c2ccc(Cl)cc2C(c2c(F)cccc2F)=NC3)cc1 (library stock concentration (final ~1000-fold dilution): 10 mM),IRF Lucia reporter activity,[1]; [4],1
same,IRF Lucia reporter activity,[1]; agonist: LPS (TLR4) 0.1 ug/mL,1.11
Clc1cc2c(NC3CCCC3)nnc(-c3ccncc3)c2cc1Cl (library stock concentration (final ~1000-fold dilution): 10 mM),IRF Lucia reporter activity,[1]; [4],0.898
same,IRF Lucia reporter activity,[1]; agonist: LPS (TLR4) 0.1 ug/mL,0.592
